First the molecules themselves.
B1: CPEB3 Ribozyme (parent)
chain: UAACAGGGGGCCACAGCAGAAGCGUUCACGUCGCAGCCCCUGUCAGAUUCUGGUGAAUCUGCGAAUUCUGCUGUAUAUCUC

The source gives no read counts; variants with many changes may rest on few reads.

Variants of B1 are the subject of the series. The experiment in a line: self-cleavage, relative activity (ratio to wild type); higher = more cleavage; in vitro, sequencing. In a few lines:
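Barcoded CPEB3 ribozyme mutants, produced by rounds of error-prone PCR, self-cleaved while being transcribed with T7 RNA polymerase for 5 hours at 37°C and during a subsequent 15 min DNase I step before EDTA was added. Sequencing of template-switched cDNA on Illumina gave cleaved and total reads, and DNA sequencing assigned barcodes to variants. Each variant's relative activity is its cleaved/total read fraction divided by the unmutated ribozyme's fraction, averaged across three batches. A variant needed a minimum of 5 reads.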
As for UGACAGGGGGCCACAGCAGGAGCGUUCACGUCGCAGCCCCUGUCAGAUUCAGGUGAAUCUGCGAAUUCAGCUGUAUAUCUC [A2G A20G U51A U69A], the self-cleavage was 0.48.
For UGACAGGGGGCCUCAGCAGGAGCGUUCACGUCGCAGCCCCUGUCAGAUCCUGGUGAAUCUGCGAAUCCUGCUGUAUAUCUC [A2G A13U A20G U49C U67C], the self-cleavage was found to be 0.14.
For UGACGGGGGGCCACAGCAGUAGCGUCCACGUCGCAGCCCCUGUCAGAUUCUGGUGAAUCUGCGAAUUCUGCUGUAUAUCUC [A2G A5G A20U U26C] the value was 0.14.
For UGACAGGGGGCCACAGCGGAAGCGUUCACGUCGCAGCCCCUGUCAGAUUCUGGUGAAUCUGCGAAUUCAGCUGUAUAUCUC [A2G A18G U69A] the value was 0.26; for UCACAGGGGGCCACAGCAGAAGCGUUCACGUCGCAGCCACUGUCAGAUUCUGGUGAGUCUGCGAAUUCUGCUGUAUAUCUC [A2C C39A A57G], 0.08; for UGGCUGGGGGCCACAGCAGAAGCGUCCACGUCGCAGCCCCUGUCAGAAUCUGGUGAAUCUGCGAAUUCUGCCGUAUAUCUC [A2G A3G A5U U26C U48A U72C], 0.26.
Consider UGGCAGGGGGCCACAGCAGAAGCGUUCGCGUCGCAGCCCCCGUCAGACUCUGGUGAAUCUGCGAAUUCUGCUGUAUAUCUC [A2G A3G A28G U41C U48C], for which the self-cleavage amounted to 0.47.
For UGACAGGGGGCCACAGCGGAAGCGUUCACGUCGCUGCCCCUGUCAGAUUCUGGUGAAUCUGCGAAUUCUGCUGUAUAUCUC [A2G A18G A35U] the value was 0.11.
The result for UGACAGGGGGCCACAGCUGAAGCGUUCGCGUCGCAGCCCCUGUCAGAUUCUGGUGAAUCUGCGAAUUCUGCUGUAUAUCUC [A2G A18U A28G] reads 0; that for UGACUGGGGGCCACAGCAGAAGCGUUCACGUCGCAGCCCCUGUCAUAUUCUGGUGAAUCCGCGAUUUCUGCUGUAUAUCUC [A2G A5U G46U U60C A65U], 0.09; that for UGUCAGGGAGCCACAGCAGAAGCAUUCACGUCGCAGCCCCUGUCAGAUUCUGGUGAAUCUGUGAAUUCUGCUGUAUAUCUC [A2G A3U G9A G24A C62U], 0.23.
The result for UCACAGGGGGCCACAGCAGAAGCGUCCACGUCGCAGCCCCUGUCAGAUUCUGGUGAAUCUGCGAAUUCUACUGUAUAUCUC [A2C U26C G70A] reads 0.28; that for UGGCAGGGGGCCACAGCAGAAGCGUUCACGUCGCAGCCCCUGUCAGAUUCUGGUGAAUCUGCGGAUUCUGCUGUAUAUCUC [A2G A3G A64G], 0.73.
For UGACAGGGGGCCGCAGCAGAAGCGUUCCCGUCGCAGCCCCUGUCAGAUUCUGGUGUAUCUGCGAAUUCUGCUGUAUAUCUC [A2G A13G A28C A56U], the self-cleavage amounted to 0.38.
For the variant UGGCAGGGGGCCACAGCAGAAGCGUCCCCGUCGCAGCCCCUGUCAGAUUCUGGUGAAUCUGCGAAUUCUGCAGUAUAUCUC [A2G A3G U26C A28C U72A], the self-cleavage stood at 0.18.
The result for UGACUGGGGGCCACAGCAGAAGCGCUCUCGUCGCAGCCCCUGUCAGAUUCUGGUGAAUCUGCUAAUUAUGCUGUAUAUCUC [A2G A5U U25C A28U G63U C68A] reads 0.12.
Regarding UGACAGGGGGCCACGGCAGAGGCGUUCACGUCGCAGCCCCUGUCAGAUUCUGGUGAAUCUGCGAACUCUGCUGUCUACCUC [A2G A15G A21G U66C A75C U78C], the self-cleavage turned out to be 0.67.
For the variant UGACAGGGGGCCUCAGCAGAAGCGUUCACGCCGCAGCCCCUGUCAGAUUCUGGUGAAUCUGCGUGUUCCGCUGUAUAUCUC [A2G A13U U31C A64U A65G U69C], the self-cleavage was 0.27.
For UGACAGGGGGCCUCAGCAGAAGCGUUCACGUCGCAGCCCCUGACAGAUUCUGGUGAACCUGCGAACUCUGCUGUAUAUCUC [A2G A13U U43A U58C U66C] the value was 0.13.
As to UGACGGGGGGCCACAGCAGAAGCGUUCACGUCGCAGCCCUGGACAGAUUCUGGUGAAUCUGCGAACUCUGCUGUAUAUCUC [A2G A5G C40U U41G U43A U66C], the self-cleavage was 0.12.
As to UGACAGGGGGCCUCAGCAGAAGCGUUCACGUCGCAGCCCCCGUCAGAUUCUGGUGAAUCUGCGAAUUCUGCUGUAUAUCUC [A2G A13U U41C], the self-cleavage turned out to be 0.63.
As to UGACAGGGGGCCACAGCUGAAGUGUUCACGUCGCAGCCCCUGUCAGAUUCUGGAGAAUCUGCGAAUUCCGCUGUAUAUCUC [A2G A18U C23U U54A U69C], the self-cleavage stood at 0.22.
For UGACGGGGGGCCACAGCAGAAGCGUUCAUGUCGCAGCCCCUGUCAGAUUCUGGUGGAUCUGCGAAUUCUGCUGUAUAUCUC [A2G A5G C29U A56G] the value was 0.35; for UGACAGGGGGCCACCGCAGAAGCGUUCACGUCGCAGCCCCUGUCAGAUUCUGGUGAAUCCGCGAAUUCUGCUGUAUAUCUC [A2G A15C U60C], 0.25; for UGACAGGGGGCCACGGCAGAAGCGUUCACGUCGCUGCCCCUGUCGGAUUCUGGUGAAUCUGCGAAUUCUGCUGUAUACCUC [A2G A15G A35U A45G U78C], 0.11.
For UGACCGGGGGCCACAGCAGAAGCGUUCACGUCGCAGCCCCCGUCAGAUUCUGGUGAAUCUGCGAAUUCUGCUGUAUAUCUC [A2G A5C U41C] the value was 0.62.
The result for UGGCAGGGGGCCUCAGCAGAAGCGUUCACGACGCAGCCCCUGUCAGAUUCUGGUGAAUCUGCGAAUUCUGCUGUAUACCUC [A2G A3G A13U U31A U78C] reads 0.68; that for UCACAGGGGGCCACAGCAGAAGCGUUCACGUCGCAGCCCCUGUCAGAUUCUGGUGAAUCUGCGAAUACUGCAGUAUAUCUC [A2C U67A U72A], 0.22.
Take UGACAGGGGGCCACUGCAGGAGCGUUCUCGUCGCAGCCCCUGUCAGAUUCUGGUGAAUCUGCGAAUUCUGCUGUAUAUCUC [A2G A15U A20G A28U]: the self-cleavage came to 0.5.
As to UGACAGGGGGCCACGGCAGAAGCGUUCACGUCGCAGCCCCUGUCAGAUUCUGGUGGAUCUGCGAAUUCUGCUGUAUAUCUC [A2G A15G A56G], the self-cleavage stood at 0.48.
For the variant UGACAGGGGGCCACAGCGGAAGCGUUCACGUCGCAGCCCCUGUCAGAUUCUGGUGGGUCUGCGAAUUCUGCCGUAUAUCUC [A2G A18G A56G A57G U72C], the self-cleavage is 0.34.
For UGACUGGGGGCCACAGCAGAAGCGUCCACGUCGCAGCCCCCGUCAGAUUCUGGUGAAUCUGCGAAUUCUGCUGCAUAUCUC [A2G A5U U26C U41C U74C], the self-cleavage turned out to be 0.74.
For UGUCAGGGGGGCACAGCAGAAGCGUUCACGUCGCAGCCCCUGUCAGAUUCAGGUGGAUCUGCGAAUUCUGCUGUAAAUCUC [A2G A3U C11G U51A A56G U76A] the value was 0.22; for UGACAGGGGGCCACGGCAGAAGCGUUCACGUCGCAGCCCCUGUCAGAUUCUGGUGAAUCUGCUAAUUCUGCUGUACAUCUC [A2G A15G G63U U76C], 0.73.

The values above are taken from the RNAGym collection of RNA variant scans (doi:10.1093/nar/gkz1192).
